Patent US8067379B2, “Sulfur compounds as inhibitors of hepatitis C virus NS3 serine protease” (Schering Corporation, priority 2004, dated 2011)

biological target: Recombinant heterodimeric HCV NS3/NS4A protease (strain 1a) (Hepatitis C virus genotype 1a, UniProt P27958); assay: Spectrophotometric assay for HCV serine protease inhibitory activity (chromogenic ester substrates); format: biochemical; conditions: Table 3A; cells that print a number instead of a class symbol; read-out: Ki* Range

Row | Compound | Ki [µM]
1 | C=CCNC(=O)C(=O)[C@H](CCCC)NC(=O)[C@@H]1[C@@H]2[C@H](CN1C(=O)[C@@H](NC(=O)NC1(C3OCCS3(=O)=O)CCCCC1)C(C)(C)C)C2(C)C (stereo partly shown) [Compound 883-c] | 0.003

same assay, conditions: Table 3A; class symbols; read-out: Ki* Range

Row | Compound | Ki [µM]
2 | CCCC[C@H](NC(=O)[C@@H]1[C@@H]2[C@H](CN1C(=O)[C@@H](NC(=O)NC1(CS(=O)(=O)C(C)(C)C)CCCCC1)C1(C)CCCCC1)C2(C)C)C(=O)C(=O)NCC [Compound 883-aq] | 0.075 to 0.25
3 | CC(C)(C)[C@H](NC(=O)NC1(CS(=O)(=O)C(C)(C)CN2CCCC2)CCCCC1)C(=O)N1C[C@H]2[C@@H]([C@H]1C(=O)N[C@@H](CCC1CC1)C(=O)C(=O)NC1CC1)C2(C)C [Compound 883-ar] | < 0.075
4 | CCCC[C@H](NC(=O)[C@@H]1[C@@H]2[C@H](CN1C(=O)[C@@H](NC(=O)NC1(CS(=O)(=O)C(C)(C)CN3CCCC3)CCCCC1)C(C)(C)C)C2(C)C)C(=O)C(=O)NC1CC1 [Compound 883-as] | < 0.075
5 | C=CCNC(=O)C(=O)[C@H](CCCC)NC(=O)[C@@H]1[C@@H]2[C@H](CN1C(=O)[C@@H](NC(=O)NC1(CS(=O)(=O)C(C)(C)CN3CCCC3)CCCCC1)C(C)(C)C)C2(C)C [Compound 883-at] | < 0.075
6 | C=CCNC(=O)C(=O)[C@H](CCCC)NC(=O)[C@@H]1[C@@H]2[C@H](CN1C(=O)[C@@H](NC(=O)NC1([C@@H]3CCCS3(=O)=O)CCCCC1)C1CCCCC1)C2(C)C [Compound 883-au] | < 0.075
7 | C=CCNC(=O)C(=O)[C@H](CCC1CC1)NC(=O)[C@@H]1[C@@H]2[C@H](CN1C(=O)[C@@H](NC(=O)NC1([C@@H]3CCCS3(=O)=O)CCCCC1)C1CCCCC1)C2(C)C [Compound 883-av] | < 0.075
8 | C=CCNC(=O)C(=O)[C@H](CCC1CC1)NC(=O)[C@@H]1[C@@H]2[C@H](CN1C(=O)[C@@H](NC(=O)NC1(CS(=O)(=O)C3(CO)CCCCC3)CCCCC1)C1(C)CCCCC1)C2(C)C [Compound 883-aw] | < 0.075
9 | C=CCNC(=O)C(=O)[C@H](CC1CC1)NC(=O)[C@@H]1[C@@H]2[C@H](CN1C(=O)[C@@H](NC(=O)NC1(CS(=O)(=O)C3(CO)CCCCC3)CCCCC1)C1(C)CCCCC1)C2(C)C [Compound 883-ax] | < 0.075
10 | C=CCNC(=O)C(=O)[C@H](CCCC)NC(=O)[C@@H]1[C@@H]2[C@H](CN1C(=O)[C@@H](NC(=O)NC1(CS(=O)(=O)C3(CO)CCCCC3)CCCCC1)C1(C)CCCCC1)C2(C)C [Compound 883-ay] | < 0.075
11 | CCNC(=O)C(=O)[C@H](CCC1CC1)NC(=O)[C@@H]1[C@@H]2[C@H](CN1C(=O)[C@@H](NC(=O)NC1(CS(=O)(=O)C(C)(C)C)CCCCC1)C(C)(C)C)C2(C)C [Compound 883-az] | < 0.075
12 | C=CCNC(=O)C(=O)[C@H](CCC1CC1)NC(=O)[C@@H]1[C@@H]2[C@H](CN1C(=O)[C@@H](NC(=O)NC1(CS(=O)(=O)C(C)(C)C)CCCCC1)C1(C)CCCCC1)C2(C)C [Compound 883-b] | < 0.075
13 | CNC(=O)C(=O)[C@H](CCC1CC1)NC(=O)[C@@H]1[C@@H]2[C@H](CN1C(=O)[C@@H](NC(=O)NC1(CS(=O)(=O)C(C)(C)C)CCCCC1)C(C)(C)C)C2(C)C [Compound 883-ba] | < 0.075
14 | CNC(=O)C(=O)[C@H](CCC1CC1)NC(=O)[C@@H]1[C@@H]2[C@H](CN1C(=O)[C@@H](NC(=O)NC1(CS(=O)(=O)C(C)(C)C)CCCCC1)C1(C)CCCCC1)C2(C)C [Compound 883-bb] | < 0.075
15 | CCCNC(=O)C(=O)[C@H](CCC1CC1)NC(=O)[C@@H]1[C@@H]2[C@H](CN1C(=O)[C@@H](NC(=O)NC1(CS(=O)(=O)C(C)(C)C)CCCCC1)C(C)(C)C)C2(C)C [Compound 883-bc] | < 0.075
16 | C=C(F)CNC(=O)C(=O)[C@H](CCC1CC1)NC(=O)[C@@H]1[C@@H]2[C@H](CN1C(=O)[C@@H](NC(=O)NC1(CS(=O)(=O)C(C)(C)C)CCCCC1)C1(C)CCCCC1)C2(C)C [Compound 883-be] | < 0.075
17 | C=CCNC(=O)C(=O)[C@H](CCC)NC(=O)[C@@H]1[C@@H]2[C@H](CN1C(=O)[C@@H](NC(=O)NC1(C3COCCS3(=O)=O)CCCCC1)C(C)(C)C)C2(C)C (stereo partly shown) [Compound 883-bf] | < 0.075
18 | CCCC[C@@H](NC(=O)[C@@H]1[C@@H]2[C@H](CN1C(=O)[C@@H](NC(=O)NC1(CS(=O)(=O)C(C)(C)C)CCCCC1)C(C)(C)C)C2(Cl)Cl)C(=O)C(=O)NCC [Compound 883-bg] | 0.075 to 0.25
19 | CCCC[C@H](NC(=O)[C@@H]1[C@@H]2[C@H](CN1C(=O)[C@@H](NC(=O)NC1(CS(=O)(=O)C(C)(C)C)CCCCC1)C(C)(C)C)C2(Cl)Cl)C(=O)C(=O)NCC [Compound 883-bh] | < 0.075
20 | C=C(F)CNC(=O)C(=O)[C@@H](CCCC)NC(=O)[C@@H]1[C@@H]2[C@H](CN1C(=O)[C@@H](NC(=O)NC1([C@H]3CCCS3(=O)=O)CCCCC1)C(C)(C)C)C2(C)C [Compound 883-bi] | 0.075 to 0.25
21 | C=C(F)CNC(=O)C(=O)[C@@H](CCCC)NC(=O)[C@@H]1[C@@H]2[C@H](CN1C(=O)[C@@H](NC(=O)NC1([C@@H]3CCCS3(=O)=O)CCCCC1)C(C)(C)C)C2(C)C [Compound 883-bj] | 0.075 to 0.25
22 | C=C(F)CNC(=O)C(=O)[C@H](CCCC)NC(=O)[C@@H]1[C@@H]2[C@H](CN1C(=O)[C@@H](NC(=O)NC1([C@H]3CCCS3(=O)=O)CCCCC1)C(C)(C)C)C2(C)C [Compound 883-bk] | < 0.075

Row | Compound | Ki [µM]
23 | C=C(F)CNC(=O)C(=O)[C@H](CCCC)NC(=O)[C@@H]1[C@@H]2[C@H](CN1C(=O)[C@@H](NC(=O)NC1([C@@H]3CCCS3(=O)=O)CCCCC1)C(C)(C)C)C2(C)C [Compound 883-bl] | < 0.075
24 | CCCNC(=O)C(=O)[C@H](CCC1CC1)NC(=O)[C@@H]1[C@@H]2[C@H](CN1C(=O)[C@@H](NC(=O)NC1([C@H]3CCCS3(=O)=O)CCCCC1)C1CCCCC1)C2(C)C [Compound 883-bm] | < 0.075
25 | CCCNC(=O)C(=O)[C@H](CCC1CC1)NC(=O)[C@@H]1[C@@H]2[C@H](CN1C(=O)[C@@H](NC(=O)NC1([C@@H]3CCCCS3(=O)=O)CCCCC1)C1(C)CCCCC1)C2(C)C [Compound 883-bn] | < 0.075
26 | CCCNC(=O)C(=O)[C@H](CC1CC1)NC(=O)[C@@H]1[C@@H]2[C@H](CN1C(=O)[C@@H](NC(=O)NC1(CS(=O)(=O)CCC(C)C)CCCCC1)C1(C)CCCCC1)C2(C)C [Compound 883-bo] | < 0.075
27 | C#CCNC(=O)C(=O)[C@H](CCC)NC(=O)[C@@H]1[C@@H]2[C@H](CN1C(=O)[C@@H](NC(=O)NC1(C3CCCCS3(=O)=O)CCCCC1)C1(C)CCCCC1)C2(C)C (stereo partly shown) [Compound 883-bp] | < 0.075
28 | CCCNC(=O)C(=O)[C@H](CCC)NC(=O)[C@@H]1[C@@H]2[C@H](CN1C(=O)[C@@H](NC(=O)NC1(CS(=O)(=O)C3(C)CCOCC3)CCCCC1)C(C)(C)C)C2(C)C [Compound 883-bq] | < 0.075
29 | CCCC[C@H](NC(=O)[C@@H]1[C@@H]2[C@H](CN1C(=O)[C@@H](NC(=O)NC1(CS(=O)(=O)C3(C)CCOCC3)CCCCC1)C(C)(C)C)C2(C)C)C(=O)C(=O)NCCC [Compound 883-br] | < 0.075
30 | CCNC(=O)C(=O)[C@H](CCC1CC1)NC(=O)[C@@H]1[C@@H]2[C@H](CN1C(=O)[C@@H](NC(=O)NC1(CS(=O)(=O)C(C)(C)C)CCCCC1)C1(C)CCCCC1)C2(C)C [Compound 883-bs] | < 0.075
31 | C=C(F)CNC(=O)C(=O)[C@H](CC1CC1)NC(=O)[C@@H]1[C@@H]2[C@H](CN1C(=O)[C@@H](NC(=O)NC1(CS(=O)(=O)C(C)(C)C)CCCCC1)C1(C)CCCCC1)C2(C)C [Compound 883-bt] | < 0.075
32 | CNC(=O)C(=O)[C@H](CCC1CC1)NC(=O)[C@@H]1[C@@H]2[C@H](CN1C(=O)[C@@H](NC(=O)NC1(CS(=O)(=O)C(C)(C)C)CCCCC1)C1CCCCC1)C2(C)C [Compound 883-bu] | < 0.075
33 | CNC(=O)C(=O)[C@H](CCC(F)(F)F)NC(=O)[C@@H]1[C@@H]2[C@H](CN1C(=O)[C@@H](NC(=O)NC1(CS(=O)(=O)C(C)(C)C)CCCCC1)C(C)(C)C)C2(C)C [Compound 883-bv] | < 0.075
34 | CC(C)(C)[C@H](NC(=O)NC1(CS(=O)(=O)C(C)(C)C)CCCCC1)C(=O)N1C[C@H]2[C@@H]([C@H]1C(=O)N[C@@H](CCCF)C(=O)C(=O)NC1CC1)C2(C)C [Compound 883-bw] | < 0.075
35 | CCC(C)(C)S(=O)(=O)CC1(NC(=O)N[C@H](C(=O)N2C[C@H]3[C@@H]([C@H]2C(=O)N[C@@H](CCC2CC2)C(=O)C(=O)NC2CC2)C3(C)C)C2(C)CCCCC2)CCCCC1 [Compound 883-bx] | < 0.075
36 | CCCC[C@H](NC(=O)[C@@H]1[C@@H]2[C@H](CN1C(=O)[C@@H](NC(=O)NC1(CS(=O)(=O)C(C)(C)CC)CCCCC1)C1(C)CCCCC1)C2(C)C)C(=O)C(=O)NC1CC1 [Compound 883-by] | < 0.075
37 | CCCC[C@H](NC(=O)[C@@H]1[C@@H]2[C@H](CN1C(=O)[C@@H](NC(=O)NC1(CS(=O)(=O)C(C)(C)CC)CCCCC1)C1(C)CCCCC1)C2(C)C)C(=O)C(=O)NCC [Compound 883-bz] | < 0.075
38 | CCCC[C@H](NC(=O)[C@@H]1[C@@H]2[C@H](CN1C(=O)[C@@H](NC(=O)NC1(CS(=O)(=O)C(C)(C)CC)CCCCC1)C1(C)CCCCC1)C2(C)C)C(=O)C(=O)NCCC [Compound 883-ca] | < 0.075
39 | CCNC(=O)C(=O)[C@H](CCC(F)(F)F)NC(=O)[C@@H]1[C@@H]2[C@H](CN1C(=O)[C@@H](NC(=O)NC1(CS(=O)(=O)C(C)(C)C)CCCCC1)C(C)(C)C)C2(C)C [Compound 883-cb] | < 0.075
40 | CCCNC(=O)C(=O)[C@H](CC1CC1)NC(=O)[C@@H]1[C@@H]2[C@H](CN1C(=O)[C@@H](NC(=O)NC1([C@H]3CCCS3(=O)=O)CCCCC1)C1CCCCC1)C2(C)C [Compound 883-cc] | < 0.075
41 | CCCC[C@H](NC(=O)[C@@H]1[C@@H]2[C@H](CN1C(=O)[C@@H](NC(=O)NC1([C@H]3CCCS3(=O)=O)CCCCC1)C1CCCCC1)C2(C)C)C(=O)C(=O)NCCC [Compound 883-cd] | < 0.075
42 | CC1([C@H](NC(=O)NC2(CS(=O)(=O)C(C)(C)C)CCCCC2)C(=O)N2C[C@H]3[C@@H]([C@H]2C(=O)N[C@@H](CC2CC2)C(=O)C(=O)NCc2cccs2)C3(C)C)CCCCC1 [Compound 883-ce] | < 0.075
43 | CCCC[C@H](NC(=O)[C@@H]1[C@@H]2[C@H](CN1C(=O)[C@@H](NC(=O)NC1(CS(=O)(=O)C(C)(C)C)CCCCC1)C1(C)CCCCC1)C2(C)C)C(=O)C(=O)NCc1cccs1 [Compound 883-cf] | < 0.075
